Among all 310,000 compounds or so, about 2,200 (0.71%) showed an effect of 50% or more. The effect is printed as a negative number. Some of the results follow.
Each compound was assayed against human ether-à-go-go-related gene (hERG) potassium channel (human, UniProt Q12809) (assay: primary screen, population patch clamp on CHO cells stably expressing hERG).
Chain of human ether-à-go-go-related gene (hERG) potassium channel (Q12809 whole entry, looked up): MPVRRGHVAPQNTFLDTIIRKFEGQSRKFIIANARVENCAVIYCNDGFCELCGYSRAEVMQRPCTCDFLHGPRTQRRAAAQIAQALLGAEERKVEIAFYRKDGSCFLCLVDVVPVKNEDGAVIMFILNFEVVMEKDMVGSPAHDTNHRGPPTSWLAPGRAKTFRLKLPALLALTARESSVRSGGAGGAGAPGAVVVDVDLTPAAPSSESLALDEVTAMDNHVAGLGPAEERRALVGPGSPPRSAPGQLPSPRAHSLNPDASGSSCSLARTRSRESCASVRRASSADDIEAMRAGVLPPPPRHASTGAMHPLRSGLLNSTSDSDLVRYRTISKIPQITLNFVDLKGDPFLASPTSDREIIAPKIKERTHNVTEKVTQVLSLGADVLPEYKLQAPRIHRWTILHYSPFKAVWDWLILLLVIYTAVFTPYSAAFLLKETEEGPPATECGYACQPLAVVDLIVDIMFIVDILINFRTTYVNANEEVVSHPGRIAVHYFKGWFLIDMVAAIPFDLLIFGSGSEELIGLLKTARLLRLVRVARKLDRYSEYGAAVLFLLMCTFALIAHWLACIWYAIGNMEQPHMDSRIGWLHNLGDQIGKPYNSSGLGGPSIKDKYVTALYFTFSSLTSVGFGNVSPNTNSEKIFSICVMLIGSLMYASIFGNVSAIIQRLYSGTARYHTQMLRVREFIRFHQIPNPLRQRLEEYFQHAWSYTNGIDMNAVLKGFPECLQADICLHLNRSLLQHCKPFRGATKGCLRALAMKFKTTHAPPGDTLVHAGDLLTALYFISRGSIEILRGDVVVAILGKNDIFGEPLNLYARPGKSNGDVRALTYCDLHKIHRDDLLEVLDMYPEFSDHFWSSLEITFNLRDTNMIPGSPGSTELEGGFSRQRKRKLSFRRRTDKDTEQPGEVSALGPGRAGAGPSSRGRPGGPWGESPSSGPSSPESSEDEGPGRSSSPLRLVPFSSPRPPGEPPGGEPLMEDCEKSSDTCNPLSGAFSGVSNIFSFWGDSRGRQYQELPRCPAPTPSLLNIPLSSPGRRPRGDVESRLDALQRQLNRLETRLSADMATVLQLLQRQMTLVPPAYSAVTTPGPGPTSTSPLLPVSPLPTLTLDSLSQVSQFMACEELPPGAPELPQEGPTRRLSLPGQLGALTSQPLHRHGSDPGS

SMILES	hERG current change (%, negative = inhibition) at 1uM
CC1CN(S(=O)(=O)c2cccc(C(=O)OCC(=O)Nc3ccc4c(c3)OCO4)c2)CC(C)O1 (stereo not drawn)	6.67%
CC(OC(=O)Cc1n[nH]c(=O)c2ccccc12)C(=O)Nc1ccc(F)cc1Cl (stereo not drawn)	5.43%
COc1c(Cl)cc(-c2noc(C)c2C(=O)NCCc2ccc(C)cc2)cc1Cl	4.34%
Cc1nnc(SCc2nnc(-c3cccs3)o2)s1	5.06%
Cc1ccc2c(CSc3nnc4ccccn34)cc(=O)oc2c1C	-3.5%
COc1ccc(C2Nc3ccccc3C(=O)N2c2ccc(C)cc2)cc1Cn1nc(C)c([N+](=O)[O-])c1C (stereo not drawn)	14%
COC(C(=O)Nc1ccnn1C1CCN(Cc2cnn(C)c2)CC1)c1ccccc1 (stereo not drawn)	15.1%
COC(=O)Cc1c(C)c2ccc(OC3CCCCC3=O)cc2oc1=O (stereo not drawn)	11.5%
CCCc1nc(SCc2ccccc2Cl)n[nH]1	14.2%
Cc1cc(C)nc(SC(C(=O)O)c2ccccc2)n1 (stereo not drawn)	11.3%
CCOC(=O)Cn1cc(C#N)c2ccccc21	12.7%
NC(=O)[C@H]1CC2(CC(c3cccc(NC(=O)CC(c4ccccc4)c4ccccc4)c3)=NO2)CN1C(=O)c1ccccc1C(=O)c1ccccc1 (stereo partly drawn)	7.67%
COC(=O)c1ccc(C23CC4(C2)[C@H](CN(Cc2ccc(-c5ccccc5)cc2)[C@@H]4c2ccccc2)C3c2ccc(C(F)(F)F)cc2)cc1 (stereo partly drawn)	-2.35%
COc1ccc(-c2csc(C)n2)cc1	1.64%
Cc1cccnc1NC(=O)c1ccc2c(c1)OCO2	1.76%
Cn1c(=O)[nH]c(Nc2ccccc2)c([N+](=O)[O-])c1=O	12.8%
COc1ccc(-c2nnc(C)c3nocc23)cc1	9.85%
Cc1cccn2c(=O)c3cc(C(=O)NC4CCCC4)c(=N)n(CC4CCCO4)c3nc12 (stereo not drawn)	-80.2%
O=C(NCc1ccco1)C1CCN(c2ccc(N3CCOCC3)nn2)CC1	7.3%

SMILES	hERG current change (%, negative = inhibition) at 1uM
Cc1cccc(NS(=O)(=O)c2cnc(Cl)c(Br)c2)n1	-1.1%
COc1ccc(Cc2nc3ccc(C(=O)N(C)Cc4cc(C)[nH]n4)cc3o2)cc1OC	18%
CCCOc1ccccc1/C=C(\C#N)C(=O)Nc1cccnc1	-0.538%
CCOC1C(=O)NC(=O)N1Cc1ccccc1 (stereo not drawn)	10.3%
C#CCC(NC(=O)c1ccc(C#N)cc1)C(=O)NCCC (stereo not drawn)	16.4%
CC(C)c1nnc(SCC(=O)Nc2ccc3c(c2)OCO3)n1C	9.15%
O=S(=O)(c1ccc2c(c1)CCN2)N1CCOCC1	7.59%
Cc1nc(-c2ccc(Cl)cc2)sc1C1(C)CC(c2ccccc2F)=NO1 (stereo not drawn)	9.8%
CN(C)c1ccc(C(=O)/C=C/c2cccnc2)cc1	18%
O=C(CC1C(=O)NCCN1Cc1ccccc1C(F)(F)F)NCCN1CCOCC1 (stereo not drawn)	9.33%
Cc1ccc(C)n1NC(=O)c1ccccc1	21%
O=C(CN1CCN(Cc2ccc(F)cc2)CC1)NCc1ccccc1	0.469%
CN(C)S(=O)(=O)c1ccc2c(c1)c(=O)c(C(=O)NCCCN1CCCCCC1)cn2C	7.93%
COc1ccc(CCNC(=O)c2ccc([N+](=O)[O-])cc2)cc1	3.21%
CC(=C/c1ccccc1)/C=N/n1c(-c2ccncc2)n[nH]c1=S	14.3%
CCc1cccc(CC)c1-n1c(SCC(=O)N2CCc3ccccc3C2)nnc1-c1cccnc1	9.39%
CCN(CC)CCCn1c2c(c(SCC(=O)N3CCc4ccccc43)nc1=O)CCC2	-17.5%
CCCCNC(=O)CC1NCCNC1=O (stereo not drawn)	15.8%
O=S(=O)(NC1=NCCCCC1)c1ccc(Cl)cc1Cl	15.6%

SMILES	hERG current change (%, negative = inhibition) at 1uM
Cc1cnc(C(=O)OC(C)C(=O)Nc2ccccc2-c2ccccc2)cn1 (stereo not drawn)	6.85%
COc1ccc(CN(C(=O)c2cc3ccccc3oc2=O)C2CCS(=O)(=O)C2)cc1 (stereo not drawn)	4.33%
Cc1ccc(NC2c3ncccc3C(=O)N2Cc2cccs2)cc1C (stereo not drawn)	7.22%
CCOc1ccc(N(C)Cc2cc(=O)oc3ccc(OC)cc23)cc1	11.4%
C=CCc1cccc(Cl)c1OCCCNC1CCCC1.O=C(O)C(=O)O	-0.107%
Cc1cc(C)n(CCNS(=O)(=O)c2ccccc2)n1	12.8%
O=S(=O)(CCN1CCOCC1)c1ccc(OC(F)(F)F)cc1	8.75%
CC(=O)OC(C#CCN1CCOCC1)c1ccccc1 (stereo not drawn)	-0.843%
NC(=O)c1ccccc1O	11.7%
CCOC(=O)c1cnn(CCOC(=O)C(C)(C)C)c1NC(=O)C(C)(C)C	14.3%
CS(=O)(=O)O.OC(c1cc(C(F)(F)F)nc2c(Cl)cc(Cl)cc12)C1CCCCN1 (stereo not drawn)	10.7%
Cc1ccc2nc(SCC(=O)Nc3ccc(F)cc3F)[nH]c2c1	12.9%
CCCOC(=O)Nc1cccc(C(C)=O)c1	8.68%
CCN(CC(=O)Nc1c(F)cccc1F)C(=O)C1CCN(c2ncnc3sc(C)c(C)c23)CC1	-5.95%
Cc1cc(Oc2ccc(C#N)cc2)nc(N2CCOCC2)n1	10%
CN(C)S(=O)(=O)c1ccc(Cl)c(NC(=O)COC(=O)CNC(=O)c2ccco2)c1	13.1%
COc1ccc(CCNC(=O)CSc2ccc3nnc(CCNC(=O)c4ccc(C)cc4)n3n2)cc1OC	-0.914%
CSc1ccccc1NC(=O)CSc1nnc(CNC(=O)c2ccccc2F)n1C	13.7%
Cc1ccc2c(c1)N(C(=O)CCC(=O)NCCCN(C)Cc1ccccc1)CCO2	-33.8%
